The supplement of paper PMC4604168 (melanoma cell lines)
This is one part of the list. Single values are uncertain, as repeats are few or missing.

How the values were obtained:
Experiment in all cases: cell count relative to DMSO control; melanoma cells; higher = more viable cells
Details in all cases: library dose: standard library concentration; 72 h
G361 = system: G361
IPC-298 = system: IPC-298
IST-MEL1 = system: IST-MEL1
LB2518-MEL = system: LB2518-MEL
LOXIMVI = system: LOXIMVI
MEL-HO = system: MEL-HO
MZ2-MEL = system: MZ2-MEL
MeWo = system: MeWo
RPMI7951 = system: RPMI7951
RVH-421 = system: RVH-421
SkMel28 = system: SkMel28
SkMel2 = system: SkMel2
SkMel30 = system: SkMel30
SkMel5 = system: SkMel5
UACC257 = system: UACC257
UACC62 = system: UACC62
WM115 = system: WM115
WM1716 = system: WM1716
WM3526 = system: WM3526
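Note: cells treated in 1,536-well plates, then fixed and DAPI-stained, with nuclei counted from automated high-throughput microscope images.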

Structure (SMILES)	cell count (G361) [%]	cell count (IPC-298) [%]	cell count (IST-MEL1) [%]	cell count (LB2518-MEL) [%]	cell count (LOXIMVI) [%]	cell count (MEL-HO) [%]	cell count (MZ2-MEL) [%]	cell count (MeWo) [%]	cell count (RPMI7951) [%]	cell count (RVH-421) [%]	cell count (SkMel28) [%]	cell count (SkMel2) [%]	cell count (SkMel30) [%]	cell count (SkMel5) [%]	cell count (UACC257) [%]	cell count (UACC62) [%]	cell count (WM115) [%]	cell count (WM1716) [%]	cell count (WM3526) [%]
CS(=O)(=O)CCNCc1ccc(-c2ccc3ncnc(Nc4ccc(OCc5cccc(F)c5)c(Cl)c4)c3c2)o1 [lapatinib] + Cc1cc(SCc2sc(-c3ccc(C(F)(F)F)c(F)c3)nc2C)ccc1OCC(=O)O [GW0742] (first compound 4 µM, partner dose 10 µM)	61.4	92.5	89.9	103	108	73.3	58.3	79	51.9	98.8	86.1	84.2	108	54.7	104	49.7	94.3	83.7	90.1
CCN(CC)CCNC(=O)c1c(C)[nH]c(/C=C2\C(=O)Nc3ccc(F)cc32)c1C [sunitinib] + O=C(Oc1ccc([N+](=O)[O-])cc1)N1CCC(C(O)(c2ccc3c(c2)OCO3)c2ccc3c(c2)OCO3)CC1 [JZL184] (first compound 2 µM, partner dose 5 µM)	83.7	88.6	88.4	66.8	229	87.4	102	61.2	57.5	121	72.7	85.7	59.1	52.3	113	39	64.8	75.9	54.9
Cn1c(=O)n(-c2ccc(C(C)(C)C#N)cc2)c2c3cc(-c4cnc5ccccc5c4)ccc3ncc21 + C/C(O)=C(\C#N)C(=O)Nc1cc(Br)ccc1Br [LFM-A13] (first compound 0.02 µM, partner dose 10 µM)	54.8	73.3	79	85.8	82	55.5	79.1	64.8	72.8	77	50.7	70.1	75.1	79.5	112	72.4	79.3	68.1	73.3
C[C@@H](N)c1ccc(C(=O)Nc2ccnc3[nH]ccc23)cc1 + C/C(O)=C(\C#N)C(=O)Nc1cc(Br)ccc1Br [LFM-A13] (first compound 2 µM, partner dose 10 µM)	124	91.1	93.9	120	103	70.8	51.9	73.7	49.1	67.5	94.2	99.6	99.7	52.2	68.7	64.7	91.8	45.7	86.4
CC[C@]1(O)C[C@H]2CN(CCc3c([nH]c4ccccc34)[C@@](C(=O)OC)(c3cc4c(cc3OC)N(C=O)[C@H]3[C@@](O)(C(=O)OC)[C@H](OC(C)=O)[C@]5(CC)C=CCN6CC[C@]43[C@@H]65)C2)C1 [vincristine] + Cc1cc(SCc2sc(-c3ccc(C(F)(F)F)c(F)c3)nc2C)ccc1OCC(=O)O [GW0742] (first compound 0.0005 µM, partner dose 10 µM)	78.3	88	86	75.6	61.2	88.9	89	39.2	40	85.5	63.3	84.8	60.5	33.9	71.3	68.8	28	45.9	57.7
CS(=O)(=O)c1ccc(C(=O)Nc2ccc(Cl)c(-c3ccccn3)c2)c(Cl)c1 [vismodegib] + O=C(Oc1ccc([N+](=O)[O-])cc1)N1CCC(C(O)(c2ccc3c(c2)OCO3)c2ccc3c(c2)OCO3)CC1 [JZL184] (first compound 5 µM, partner dose 5 µM)	110	112	92.4	140	93.1	98	140	93.5	88.9	113	98.1	108	90	99.6	95.4	72.1	126	99.4	82.6
Cn1cnc2c(F)c(Nc3ccc(Br)cc3Cl)c(C(=O)NOCCO)cc21 [selumetinib] + Cc1cc(SCc2sc(-c3ccc(C(F)(F)F)c(F)c3)nc2C)ccc1OCC(=O)O [GW0742] (first compound 0.075 µM, partner dose 10 µM)	76	49.8	93.3	48.6	113	83.2	61.7	76.1	105	69.9	61.4	57.2	64.2	64.3	94.5	57.1	75.2	87.3	59.4
CCCS(=O)(=O)Nc1ccc(F)c(C(=O)c2c[nH]c3ncc(Cl)cc23)c1F + C/C(O)=C(\C#N)C(=O)Nc1cc(Br)ccc1Br [LFM-A13] (first compound 0.4 µM, partner dose 10 µM)	69.2	89.2	93.2	105	76.1	73.4	94.7	93.4	84	66.1	53.2	102	98.5	78.5	99.1	53	92.8	64.2	50.1
CC(=O)c1c(C)c2cnc(Nc3ccc(N4CCNCC4)cn3)nc2n(C2CCCC2)c1=O [palbociclib] + C/C(O)=C(\C#N)C(=O)Nc1cc(Br)ccc1Br [LFM-A13] (first compound 0.2 µM, partner dose 10 µM)	81.5	88.6	69.2	91.6	97.9	85.9	76.2	60.3	77.4	100	51.4	70.7	78.7	68.3	91.8	62.4	48.9	37.3	53.8
C[C@@H](N)c1ccc(C(=O)Nc2ccnc3[nH]ccc23)cc1 + Cc1cc(SCc2sc(-c3ccc(C(F)(F)F)c(F)c3)nc2C)ccc1OCC(=O)O [GW0742] (first compound 2 µM, partner dose 10 µM)	77.5	98.9	79	88.4	74.7	73.8	69.3	48.3	61.3	48.2	87.7	78.5	61.2	46.1	67.6	78	94	33.9	80.5
Nc1nc(F)nc2c1ncn2[C@@H]1O[C@H](CO)[C@@H](O)[C@@H]1O [fludarabine] + C/C(O)=C(\C#N)C(=O)Nc1cc(Br)ccc1Br [LFM-A13] (first compound 1 µM, partner dose 10 µM)	98.1	75	69	90.3	83.8	76.7	98.8	92.9	40.1	88.6	2.96	2.93	12.6	33.6	32	60	103	87.9	22.2
COc1ccc(C2=N[C@@H](c3ccc(Cl)cc3)[C@@H](c3ccc(Cl)cc3)N2C(=O)N2CCNC(=O)C2)c(OC(C)C)c1 [Nutlin-3] + C/C(O)=C(\C#N)C(=O)Nc1cc(Br)ccc1Br [LFM-A13] (first compound 0.5 µM, partner dose 10 µM)	101	103	97	67.2	88.4	88.5	102	94.6	82.8	75.7	56.2	95.5	100	92.9	89.5	61.9	88	76.6	88.1
O=C(O)[C@@H]1[O][Sb](=[O])([O][Sb]2(=[O])[O][C@H]([C@H](O)CO)[C@H](O)[C@H](C(=O)O)[O]2)[O][C@H]([C@H](O)CO)[C@@H]1O (some centres not stated) [stibogluconate] + O=C(Oc1ccc([N+](=O)[O-])cc1)N1CCC(C(O)(c2ccc3c(c2)OCO3)c2ccc3c(c2)OCO3)CC1 [JZL184] (first compound 10 µM, partner dose 5 µM)	104	88.1	109	123	194	87.2	105	102	124	144	102	108	110	118	113	82.2	143	92.6	81.3
